# Assay results taken from PMC5515408.
# This is one part of the list. At the low end of the ranking the order means little.
# Biological target: MAX:MAX (p21) (UniProt P61244-2)
# Test: protein-binding microarray (anti-MAX antibody)
# Settings: PBM: 15 mM Tris-HCl pH 7.5, 100 mM KCl, 0.075% NP40, 7.5 mM beta-mercaptoethanol, 375 ng/ul BSA, 8 ng/ul poly(dA-dT):(dA-dT), 550 ng complex, 60 min, room …; high values mean tight binding; double strand, one strand shown; sequences stand for … in CCGGC…TTAATAGCTAAGATTACTATATCGACG
row,Sequence,binding signal (log2 normalized fluorescence)
1,TGACACGAGGCA,3.19
2,TTACACGGGGTA,2.8
3,TGACTCTTAGTA,-0.969
4,TGATGTCTGGTA,-0.349
5,TGACAGCCGGTA,0.125
6,TGAGCTATCGTA,-1.15
7,TGATAGTAAGTA,-0.85
8,TGATCCGAAGTA,-0.99
9,TGACACTATGTA,0.0839
10,TGACACGTGCAG,2.98
11,TGAGAAACCGTA,-0.966
12,TGACCTTATGTA,0.792
13,TGCACCGTGGTA,2.46
14,TGAGGCCGAGTA,-1.09
15,TGACACGTTAGA,2.59
16,TGAAAGCCCGTA,-0.796
17,TGACGTTAGGTA,-0.444
18,TGATTATATGTA,-0.986
19,TGAGATAAAGTA,-1.13
20,GCGTGCTAGTGA,3.06
21,TGATTAATTGTA,-1.24
22,TGAATTGATGTA,-0.64
23,TGAAACGTGGAA,2.54

row,Sequence,binding signal (log2 normalized fluorescence)
1,TGACACTTGCTA,0.728
2,TGATACACGGTA,0.764
3,TGACACGCGGTC,3.32
4,TGAACAGCTGTA,0.874
5,TGAAAATTTGTA,-1.23
6,TGAATATTCGTA,-0.831
7,TGAGTAAGCGTA,-0.992
8,TGAACTCTGGTA,-0.89
9,TGAAGCCGTGTA,0.0309
10,TGACCCCTGGTA,-0.0978
11,TGAAGCATCGTA,0.0822
12,TGACTATGGGTA,-0.778
13,TGATACTTCGTA,-0.951
14,TGATTTGAGGTA,-0.917
15,TGAGCTCTAGTA,-1.14
16,TGAGAGGGAGTA,-0.678
17,TGACACTGAGTA,-0.301
18,TGAAATCCCGTA,-1.07
19,TGATTCCCCGTA,-0.91
20,TGAAGTACTGTA,-0.494
21,TGAGGTTAGGTA,-0.698
22,TGACTGTGGGTA,-0.258
23,TGACCCGTAGTA,-0.458

row,Sequence,binding signal (log2 normalized fluorescence)
1,TGATAGAATGTA,-0.606
2,ACACACGTGGTA,3.32
3,TGATGTCCCGTA,0.0598
4,TGATACCTAGTA,-1.04
5,TGATCATAGGTA,-0.321
6,TGAAAAGTTGTA,-1.06
7,TGAAGAACCGTA,-0.66
8,TGACGCTGCGTA,-0.187
9,TGATTATCCGTA,-0.913
10,TGAGACACAGTA,-0.227
11,TGATGCTGAGTA,0.00915
12,TGACTAGGCGTA,-0.638
13,AGACACGCGATA,2.93
14,TGAAAATCTGTA,-0.972
15,TGAAAGATTGTA,-0.981
16,TGACTACCTGTA,-0.185
17,TGATACACTGTA,-0.441
18,TGATGCCGGGTA,-0.632
19,TGATATATAGTA,-0.83
20,TGATACCTGCTA,-0.26
21,TGAAGGGTTGTA,-0.153
22,TGACACGTGCGG,3.31
23,TGAACCTTGGTA,-0.578

row,Sequence,binding signal (log2 normalized fluorescence)
1,TGAAATTCTGTA,-0.972
2,TGATGTCACGTA,0.661
3,TGACACGAACTA,1.23
4,TGAACGATGGTA,-0.302
5,TGACACCTGGTG,2.47
6,TTTGGTAAGTAG,-1.42
7,TGAAACCAAGTA,0.0213
8,TGACACGTGTCG,3.18
9,TGACTGCAGGTA,-0.0197
10,TGACACGGGATA,1.87
11,TGATGCGCGGTA,0.171
12,TGATGCTTGGTA,-0.206
13,TGAACGTTTGTA,0.0999
14,AGACAGGTGGGA,2.68
15,TGAGAGATGGTA,-0.65
16,TGAGGTTTAGTA,-1.4
17,TGAAACGGTGTA,-0.298
18,TGAGGACTGGTA,-0.571
19,TGATCCCACGTA,0.177
20,TGAGTTATCGTA,-0.99
21,TGACATTATGTA,0.131
22,TGATCCTCCGTA,-0.892
23,TGACCACTGGTA,-0.0671

row,Sequence,binding signal (log2 normalized fluorescence)
1,TGAACGATCGTA,-0.644
2,TGAACAAGTGTA,0.0942
3,TGATCACGTGTA,3.48
4,TGAACCACCGTA,0.288
5,TGATACCTGGTA,-0.845
6,TGAATTCCGGTA,-1.2
7,TGAGGGGTTGTA,0.434
8,TGATCCGTTGTA,-0.768
9,TGATTATCTGTA,-1.04
10,TGAAATCCTGTA,-0.887
11,TGAGTTGCAGTA,-0.74
12,TGACAAAACGTA,-0.112
13,TGATATGGAGTA,-0.82
14,TGATATCCAGTA,-1.08
15,AGACACGAGGTA,3.44
16,TGATAGATAGTA,-1.1
17,TGAGATCTCGTA,-0.834
18,TGACCCTCGGTA,-0.472
19,GGAGCCGTGGTA,0.657
20,TGACACGCGATC,2.93
21,CGACACGGCGTA,0.94
22,TGAGTGGCTGTA,0.1
23,TGACATAGCGTA,-0.366

row,Sequence,binding signal (log2 normalized fluorescence)
1,TGACTGTTAGTA,-0.399
2,TGAATAGTCGTA,-1.18
3,TGATGTTTTGTA,-0.281
4,TGAGAAATCGTA,-0.612
5,TGAACATATGTA,2.12
6,TGACACGACATA,1.63
7,ATACACGTGGTA,3.25
8,TAAGTGACGTAG,-0.575
9,TGAGTTATTGTA,-1.01
10,TGACCCAATGTA,-0.173
11,ATCAGGGAATAG,0.438
12,TGAAATAGAGTA,-1.09
13,TGACCTTGGGTA,-0.45
14,TGATAGGAGGTA,-0.743
15,TGAGGTACTGTA,-0.419
16,TGACTTCGAGTA,-0.833
17,TGAGCGTCGGTA,-0.699
18,AGACGCGGGGTA,1.2
19,TGACTATCTGTA,-0.776
20,TGAACCGCCGTA,-0.579
21,TGACACGTTACA,3.06
22,TGACCCGTGATA,2
